No constants are given. Whether binding was seen depends on the method and setting. Binding seen in cells or lysates may run through a third protein. Some results given as binding are weak or reduced against the parent protein; the word gives no strength. Tags and fused reporters may be left off the sequences shown.

Chains of the proteins cited; added tags and fusions are not shown.
UniProt O74475: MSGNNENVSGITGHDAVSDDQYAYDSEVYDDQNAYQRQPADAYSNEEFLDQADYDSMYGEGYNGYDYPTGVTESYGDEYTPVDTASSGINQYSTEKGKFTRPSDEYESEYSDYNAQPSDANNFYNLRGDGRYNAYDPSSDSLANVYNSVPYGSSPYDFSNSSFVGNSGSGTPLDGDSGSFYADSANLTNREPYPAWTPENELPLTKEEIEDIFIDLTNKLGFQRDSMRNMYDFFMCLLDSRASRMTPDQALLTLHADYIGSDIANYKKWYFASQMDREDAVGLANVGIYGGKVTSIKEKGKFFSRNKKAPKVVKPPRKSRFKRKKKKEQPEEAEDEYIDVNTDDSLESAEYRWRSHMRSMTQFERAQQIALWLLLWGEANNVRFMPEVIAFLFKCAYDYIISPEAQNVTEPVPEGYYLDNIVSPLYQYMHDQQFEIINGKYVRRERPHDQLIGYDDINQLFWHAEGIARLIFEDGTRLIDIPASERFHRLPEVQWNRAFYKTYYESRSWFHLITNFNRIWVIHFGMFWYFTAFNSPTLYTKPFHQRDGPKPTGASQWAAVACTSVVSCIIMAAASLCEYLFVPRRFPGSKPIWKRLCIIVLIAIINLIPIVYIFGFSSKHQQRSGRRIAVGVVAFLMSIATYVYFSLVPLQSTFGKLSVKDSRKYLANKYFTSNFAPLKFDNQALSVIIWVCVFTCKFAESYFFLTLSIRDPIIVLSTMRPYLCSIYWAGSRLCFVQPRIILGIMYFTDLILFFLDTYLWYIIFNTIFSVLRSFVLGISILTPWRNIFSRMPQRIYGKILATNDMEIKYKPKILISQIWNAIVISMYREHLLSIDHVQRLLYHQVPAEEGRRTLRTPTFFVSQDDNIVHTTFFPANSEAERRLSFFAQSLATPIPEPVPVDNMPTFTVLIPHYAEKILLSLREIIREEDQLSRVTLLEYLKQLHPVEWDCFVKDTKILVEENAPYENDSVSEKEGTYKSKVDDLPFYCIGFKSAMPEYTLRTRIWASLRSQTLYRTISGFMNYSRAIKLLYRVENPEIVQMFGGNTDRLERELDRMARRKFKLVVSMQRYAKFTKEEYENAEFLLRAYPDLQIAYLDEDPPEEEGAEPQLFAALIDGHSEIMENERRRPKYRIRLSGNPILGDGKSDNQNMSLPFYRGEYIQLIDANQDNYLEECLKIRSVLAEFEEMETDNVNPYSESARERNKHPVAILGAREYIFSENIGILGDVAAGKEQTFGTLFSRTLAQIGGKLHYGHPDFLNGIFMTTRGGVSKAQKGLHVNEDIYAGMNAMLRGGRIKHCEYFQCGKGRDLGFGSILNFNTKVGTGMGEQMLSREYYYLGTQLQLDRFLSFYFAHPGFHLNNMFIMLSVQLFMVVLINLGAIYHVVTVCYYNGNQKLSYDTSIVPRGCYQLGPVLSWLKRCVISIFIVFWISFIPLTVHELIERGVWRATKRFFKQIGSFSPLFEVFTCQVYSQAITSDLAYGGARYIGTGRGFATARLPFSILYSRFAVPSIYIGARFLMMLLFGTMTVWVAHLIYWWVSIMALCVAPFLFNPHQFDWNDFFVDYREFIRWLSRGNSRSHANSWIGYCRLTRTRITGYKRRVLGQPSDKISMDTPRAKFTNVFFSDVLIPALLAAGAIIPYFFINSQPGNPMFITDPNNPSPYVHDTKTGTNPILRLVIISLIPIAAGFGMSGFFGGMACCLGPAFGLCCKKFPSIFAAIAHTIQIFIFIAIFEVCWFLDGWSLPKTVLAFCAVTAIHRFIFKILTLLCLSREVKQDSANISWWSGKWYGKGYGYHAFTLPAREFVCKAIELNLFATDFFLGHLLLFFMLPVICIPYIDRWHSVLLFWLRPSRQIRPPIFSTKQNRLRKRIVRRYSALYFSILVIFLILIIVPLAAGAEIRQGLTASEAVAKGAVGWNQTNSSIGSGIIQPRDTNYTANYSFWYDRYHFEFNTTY

Two molecules from article doi:10.1101/2025.05.13.653810, “Spatial control of secretory vesicle targeting by the Ync13–Rga7–Rng10 complex during cytokinesis” (bioRxiv, 2025) can be followed below.

Test in all cases: co-IP; S. pombe cell extracts, proteins under native promoters; polyclonal GFP antibody on Dynabeads protein G; IP buffer 50 mM HEPES pH 7.5, 150 mM NaCl, 1 mM EDTA, 0.1% NP-40; 2 h at 4°C; blots with anti-GFP and anti-Myc
The target of one test is GFP-Bgs4 (S. pombe) (UniProt O74475).
For a further test, the target named is T1, Smi1-mEGFP (S. pombe) (UniProt O14362).
T1 sequence: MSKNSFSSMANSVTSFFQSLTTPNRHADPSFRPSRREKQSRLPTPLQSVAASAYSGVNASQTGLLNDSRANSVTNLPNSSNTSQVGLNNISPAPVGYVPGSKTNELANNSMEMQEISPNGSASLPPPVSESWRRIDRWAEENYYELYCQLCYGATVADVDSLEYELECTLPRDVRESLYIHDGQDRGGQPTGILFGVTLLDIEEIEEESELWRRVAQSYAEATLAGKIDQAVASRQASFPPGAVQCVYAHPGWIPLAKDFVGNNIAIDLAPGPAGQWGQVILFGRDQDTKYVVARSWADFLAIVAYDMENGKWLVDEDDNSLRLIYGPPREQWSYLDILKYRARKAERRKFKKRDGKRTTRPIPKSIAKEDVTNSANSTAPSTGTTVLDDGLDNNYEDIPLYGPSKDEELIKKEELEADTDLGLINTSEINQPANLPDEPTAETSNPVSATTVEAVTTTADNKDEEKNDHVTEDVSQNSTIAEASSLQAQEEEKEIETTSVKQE

The target of test [1] is T2, Ync13-mECitrine (S. pombe) (UniProt O13683).
T2 sequence: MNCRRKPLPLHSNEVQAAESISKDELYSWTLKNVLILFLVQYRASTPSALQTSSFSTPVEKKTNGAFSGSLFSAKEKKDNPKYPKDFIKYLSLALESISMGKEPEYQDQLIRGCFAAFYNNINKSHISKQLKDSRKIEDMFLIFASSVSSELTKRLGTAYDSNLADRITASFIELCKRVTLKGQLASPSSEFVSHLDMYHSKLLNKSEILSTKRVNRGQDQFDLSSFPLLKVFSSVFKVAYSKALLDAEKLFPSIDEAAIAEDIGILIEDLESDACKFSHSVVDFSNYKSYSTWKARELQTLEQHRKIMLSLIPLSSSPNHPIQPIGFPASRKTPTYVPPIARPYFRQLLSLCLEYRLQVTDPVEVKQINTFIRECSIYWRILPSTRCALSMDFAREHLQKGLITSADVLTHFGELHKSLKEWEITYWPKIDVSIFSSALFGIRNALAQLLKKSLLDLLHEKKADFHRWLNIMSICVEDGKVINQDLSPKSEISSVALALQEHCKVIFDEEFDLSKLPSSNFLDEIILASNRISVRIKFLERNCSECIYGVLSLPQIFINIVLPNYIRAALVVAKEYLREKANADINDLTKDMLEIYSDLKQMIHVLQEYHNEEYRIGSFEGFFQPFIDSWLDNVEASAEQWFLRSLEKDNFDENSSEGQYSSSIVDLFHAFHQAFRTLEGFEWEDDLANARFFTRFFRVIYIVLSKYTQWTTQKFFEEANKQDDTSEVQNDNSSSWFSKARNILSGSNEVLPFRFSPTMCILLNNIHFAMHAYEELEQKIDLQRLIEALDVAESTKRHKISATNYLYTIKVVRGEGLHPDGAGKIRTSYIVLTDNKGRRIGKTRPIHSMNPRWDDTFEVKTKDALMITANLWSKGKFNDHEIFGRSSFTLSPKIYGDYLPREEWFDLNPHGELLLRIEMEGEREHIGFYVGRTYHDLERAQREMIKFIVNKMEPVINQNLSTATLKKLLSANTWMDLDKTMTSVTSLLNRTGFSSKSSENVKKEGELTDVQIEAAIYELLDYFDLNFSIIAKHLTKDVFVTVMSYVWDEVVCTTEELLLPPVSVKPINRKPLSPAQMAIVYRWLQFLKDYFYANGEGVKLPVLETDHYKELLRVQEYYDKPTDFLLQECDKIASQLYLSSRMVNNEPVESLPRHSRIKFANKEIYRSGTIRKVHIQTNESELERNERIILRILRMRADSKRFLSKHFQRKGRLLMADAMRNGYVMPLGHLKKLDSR

The target in the next test is T3, Rga7-mEGFP (S. pombe) (UniProt O94466).
T3 sequence: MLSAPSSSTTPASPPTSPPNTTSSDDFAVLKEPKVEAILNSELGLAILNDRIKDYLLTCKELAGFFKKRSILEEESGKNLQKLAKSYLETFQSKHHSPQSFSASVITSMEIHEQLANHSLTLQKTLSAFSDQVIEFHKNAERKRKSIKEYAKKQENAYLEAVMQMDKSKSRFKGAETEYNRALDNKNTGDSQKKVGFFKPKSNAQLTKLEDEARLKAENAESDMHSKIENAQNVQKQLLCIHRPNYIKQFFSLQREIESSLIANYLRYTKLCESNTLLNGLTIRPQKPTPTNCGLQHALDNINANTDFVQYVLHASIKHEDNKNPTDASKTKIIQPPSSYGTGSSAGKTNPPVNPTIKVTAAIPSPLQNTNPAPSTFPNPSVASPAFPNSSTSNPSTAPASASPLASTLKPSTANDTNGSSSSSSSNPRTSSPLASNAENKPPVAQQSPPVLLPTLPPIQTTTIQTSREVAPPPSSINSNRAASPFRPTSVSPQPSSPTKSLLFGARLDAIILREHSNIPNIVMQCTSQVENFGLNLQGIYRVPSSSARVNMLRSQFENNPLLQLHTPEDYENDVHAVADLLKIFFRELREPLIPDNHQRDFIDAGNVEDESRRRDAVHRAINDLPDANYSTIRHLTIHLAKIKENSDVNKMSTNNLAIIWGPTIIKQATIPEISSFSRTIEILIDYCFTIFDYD

B1: Rga7–13Myc (protein, UniProt O94466 1-695)
chain: MLSAPSSSTTPASPPTSPPNTTSSDDFAVLKEPKVEAILNSELGLAILNDRIKDYLLTCKELAGFFKKRSILEEESGKNLQKLAKSYLETFQSKHHSPQSFSASVITSMEIHEQLANHSLTLQKTLSAFSDQVIEFHKNAERKRKSIKEYAKKQENAYLEAVMQMDKSKSRFKGAETEYNRALDNKNTGDSQKKVGFFKPKSNAQLTKLEDEARLKAENAESDMHSKIENAQNVQKQLLCIHRPNYIKQFFSLQREIESSLIANYLRYTKLCESNTLLNGLTIRPQKPTPTNCGLQHALDNINANTDFVQYVLHASIKHEDNKNPTDASKTKIIQPPSSYGTGSSAGKTNPPVNPTIKVTAAIPSPLQNTNPAPSTFPNPSVASPAFPNSSTSNPSTAPASASPLASTLKPSTANDTNGSSSSSSSNPRTSSPLASNAENKPPVAQQSPPVLLPTLPPIQTTTIQTSREVAPPPSSINSNRAASPFRPTSVSPQPSSPTKSLLFGARLDAIILREHSNIPNIVMQCTSQVENFGLNLQGIYRVPSSSARVNMLRSQFENNPLLQLHTPEDYENDVHAVADLLKIFFRELREPLIPDNHQRDFIDAGNVEDESRRRDAVHRAINDLPDANYSTIRHLTIHLAKIKENSDVNKMSTNNLAIIWGPTIIKQATIPEISSFSRTIEILIDYCFTIFDYD
Turning to B1, the binding result (with GFP-Bgs4 (S. pombe); with Smi1-mEGFP (S. pombe); in test [1]) was “binds” throughout.

B2: Smi1–13Myc (protein, UniProt O14362 1-504)
chain: MSKNSFSSMANSVTSFFQSLTTPNRHADPSFRPSRREKQSRLPTPLQSVAASAYSGVNASQTGLLNDSRANSVTNLPNSSNTSQVGLNNISPAPVGYVPGSKTNELANNSMEMQEISPNGSASLPPPVSESWRRIDRWAEENYYELYCQLCYGATVADVDSLEYELECTLPRDVRESLYIHDGQDRGGQPTGILFGVTLLDIEEIEEESELWRRVAQSYAEATLAGKIDQAVASRQASFPPGAVQCVYAHPGWIPLAKDFVGNNIAIDLAPGPAGQWGQVILFGRDQDTKYVVARSWADFLAIVAYDMENGKWLVDEDDNSLRLIYGPPREQWSYLDILKYRARKAERRKFKKRDGKRTTRPIPKSIAKEDVTNSANSTAPSTGTTVLDDGLDNNYEDIPLYGPSKDEELIKKEELEADTDLGLINTSEINQPANLPDEPTAETSNPVSATTVEAVTTTADNKDEEKNDHVTEDVSQNSTIAEASSLQAQEEEKEIETTSVKQE
B2: the binding entry with Rga7-mEGFP (S. pombe) is “binds”.
